According to the supplement of paper PMC10441789:
This is one part of the list. Antibody binding of pooled human sera (four to six donors per pool; dilution not stated) to peptides of the Trypanosoma cruzi antigen TSSA on microarrays. Quantile-normalised fluorescence in arbitrary units, mean of duplicate arrays; higher = more binding. No active / inactive call. The uninfected pools are read here as the healthy donors of the same country. The strongest signals lie near the top of the scale (about 60,000).

Columns and labels:
Assay in all cases: antibody binding signal (normalised fluorescence) (arbitrary fluorescence units); higher = stronger serum antibody binding to peptide
[1] = test system: pooled sera of chronic Chagas disease patients, Argentina
Method: (§1)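 Microarray of 15-residue peptides over residues 30-55 of Trypanosoma cruzi TSSAII, each with 1 to 10 substitutions at naturally variable positions, probed with one serum pool per country.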

[2] = test system: pooled sera of chronic Chagas disease patients, Bolivia
Method: as §1

[3] = test system: pooled sera of chronic Chagas disease patients, Brazil
Method: as §1

[4] = test system: pooled sera of chronic Chagas disease patients, Colombia
Method: as §1

[5] = test system: pooled sera of chronic Chagas disease patients, Mexico
Method: as §1

[6] = test system: pooled sera of chronic Chagas disease patients, USA
Method: as §1

[7] = test system: pooled sera of uninfected people, Argentina
Method: as §1

[8] = test system: pooled sera of uninfected people, Bolivia
Method: as §1

[9] = test system: pooled sera of uninfected people, Brazil
Method: as §1

[10] = test system: pooled sera of uninfected people, Colombia
Method: as §1

[11] = test system: pooled sera of uninfected people, Mexico
Method: as §1

[12] = test system: pooled sera of uninfected people, USA
Method: as §1

| Sequence | antibody binding signal [1] | antibody binding signal [2] | antibody binding signal [3] | antibody binding signal [4] | antibody binding signal [5] | antibody binding signal [6] | antibody binding signal [7] | antibody binding signal [8] | antibody binding signal [9] | antibody binding signal [10] | antibody binding signal [11] | antibody binding signal [12] |
| --- | --- | --- | --- | --- | --- | --- | --- | --- | --- | --- | --- | --- |
| TEKKAAAGEAPSQSG | 1230 | 10900 | 9940 | 469 | 645 | 11500 | 109 | 356 | 130 | 171 | 196 | 270 |
| GKDNKPATGGAPSQS | 940 | 770 | 2650 | 919 | 1370 | 2640 | 389 | 963 | 127 | 143 | 124 | 127 |
| TPPSGTEKKPAAGEA | 43100 | 37500 | 41700 | 434 | 17400 | 7580 | 1060 | 612 | 940 | 215 | 212 | 293 |
| SGTDKKTAAGETPSP | 182 | 415 | 1030 | 1860 | 413 | 2200 | 153 | 245 | 244 | 441 | 292 | 539 |
| SGKDNKAATGEAPSP | 23400 | 29000 | 33500 | 564 | 591 | 27100 | 238 | 326 | 165 | 338 | 102 | 122 |
| TSSTPPSGKEKKAAT | 15300 | 202 | 306 | 372 | 23000 | 650 | 348 | 331 | 108 | 225 | 93.2 | 134 |
| TISTPPSGKDKKAAT | 20600 | 593 | 704 | 256 | 43000 | 505 | 167 | 371 | 121 | 152 | 99 | 120 |
| PSGKDKKAAAGGTPS | 3290 | 596 | 2550 | 9180 | 6520 | 4890 | 127 | 176 | 330 | 119 | 80.1 | 150 |
| GTDKKAAAGGAPSQS | 243 | 207 | 217 | 3780 | 493 | 396 | 125 | 162 | 146 | 94.6 | 114 | 117 |
| GKDKKPATGEAPSQP | 40800 | 13800 | 44400 | 1640 | 1940 | 30200 | 749 | 318 | 151 | 178 | 104 | 124 |
| KKTAAGGTPSPPGAS | 279 | 297 | 238 | 3880 | 331 | 1610 | 201 | 132 | 364 | 315 | 78.6 | 292 |
| KDNKPAAGGTPSQSG | 185 | 199 | 217 | 545 | 158 | 242 | 225 | 192 | 312 | 195 | 146 | 104 |
| KEKKPAAGETPSQSG | 176 | 216 | 882 | 123 | 166 | 408 | 113 | 97.4 | 114 | 197 | 81.1 | 342 |
| KDKKTATGETPSPPG | 201 | 303 | 402 | 188 | 223 | 3480 | 252 | 136 | 123 | 107 | 109 | 489 |
| DNKAATGGAPSPSGA | 601 | 546 | 1280 | 691 | 540 | 1830 | 372 | 204 | 438 | 236 | 326 | 144 |
| KDNKPATGGTPSQSG | 350 | 402 | 606 | 339 | 287 | 335 | 360 | 426 | 252 | 186 | 300 | 146 |
| TSSTPPSGTDKKPAT | 38300 | 7150 | 43700 | 13300 | 49600 | 10100 | 981 | 214 | 280 | 274 | 3280 | 465 |
| KENKAAAGETPSPPG | 182 | 199 | 9910 | 214 | 210 | 2750 | 136 | 164 | 102 | 110 | 132 | 948 |
| PPSGKEKKAATGGTP | 1630 | 326 | 1380 | 1570 | 4440 | 2990 | 303 | 211 | 187 | 298 | 79.4 | 122 |
| KENKAATGEAPSPSG | 24400 | 8440 | 31600 | 374 | 369 | 23800 | 189 | 180 | 127 | 163 | 94.1 | 192 |
| TENKTAAGGAPSPPG | 26000 | 561 | 300 | 4890 | 672 | 757 | 396 | 172 | 526 | 191 | 382 | 200 |
| SGTEKKTAAGETPSQ | 377 | 791 | 2280 | 647 | 708 | 2660 | 105 | 552 | 383 | 1040 | 165 | 124 |
| PPSGTDNKPAAGEAP | 25800 | 40400 | 45800 | 3400 | 2480 | 22500 | 843 | 678 | 623 | 412 | 672 | 353 |
| KENKTAAGGTPSPSG | 469 | 184 | 285 | 2420 | 208 | 1250 | 174 | 87.2 | 353 | 109 | 188 | 133 |
| PPSGTDKKPATGETP | 34100 | 31900 | 43800 | 9620 | 25100 | 21500 | 411 | 438 | 446 | 608 | 6010 | 379 |

| Sequence | antibody binding signal [1] | antibody binding signal [2] | antibody binding signal [3] | antibody binding signal [4] | antibody binding signal [5] | antibody binding signal [6] | antibody binding signal [7] | antibody binding signal [8] | antibody binding signal [9] | antibody binding signal [10] | antibody binding signal [11] | antibody binding signal [12] |
| --- | --- | --- | --- | --- | --- | --- | --- | --- | --- | --- | --- | --- |
| KKTATGEAPSQPGAS | 4920 | 8660 | 32000 | 231 | 200 | 14000 | 329 | 193 | 104 | 131 | 112 | 362 |
| TENKPAAGGAPSQSG | 45900 | 1150 | 4900 | 1070 | 926 | 681 | 265 | 509 | 258 | 138 | 256 | 221 |
| KEKKAAAGETPSQSG | 177 | 205 | 266 | 154 | 122 | 510 | 101 | 99.8 | 81.8 | 99.9 | 88.8 | 95.9 |
| GTDNKAATGGTPSQS | 421 | 646 | 32200 | 775 | 647 | 179 | 274 | 735 | 1780 | 190 | 358 | 168 |
| KEKKTATGGAPSQSG | 736 | 269 | 448 | 636 | 822 | 489 | 224 | 124 | 102 | 121 | 106 | 108 |
| DKKPAAGETPSQSGA |  | 277 | 11300 | 186 | 233 | 1580 | 92.2 | 251 | 226 | 713 | 122 | 105 |
| TPPSGKDNKTATGEA | 2930 | 3600 | 2200 | 1530 | 15000 | 2650 | 203 | 386 | 178 | 272 | 118 | 128 |
| ENKPAAGGAPSQPGA | 544 | 4710 | 24400 | 1600 | 417 | 2560 | 326 | 336 | 304 | 245 | 288 | 367 |
| SGKDNKPATGGTPSQ | 1080 | 324 | 9380 | 1080 | 865 | 1290 | 409 | 905 | 192 | 403 | 192 | 132 |
| GTENKPATGETPSQS | 42500 | 36500 | 38500 | 1900 | 2920 | 29600 | 478 | 1130 | 448 | 185 | 1920 | 152 |
| TENKPAAGEAPSQSG | 42800 | 17800 | 29500 | 310 | 496 | 15400 | 171 | 278 | 167 | 79.2 | 162 | 244 |
| ENKPATGETPSQPGA | 40700 | 39200 | 47500 | 285 | 483 | 26000 | 422 | 857 | 448 | 218 | 1700 | 289 |
| KENKPAAGETPSPSG | 276 | 332 | 13500 | 381 | 513 | 4480 | 190 | 384 | 164 | 135 | 280 | 1900 |
| KDNKTATGGTPSPSG | 447 | 298 | 321 | 1710 | 242 | 491 | 319 | 149 | 188 | 264 | 106 | 163 |
| SGTDKKAAAGETPSQ |  | 1430 | 6570 | 5180 | 432 | 1100 | 152 | 338 | 189 | 769 | 1130 | 153 |
| GTDNKAAAGGAPSQS | 333 | 228 | 29900 | 2560 | 439 | 263 | 180 | 727 | 1590 | 211 | 227 | 203 |
| TENKPAAGGAPSPPG | 43100 | 1030 | 3680 | 1100 | 630 | 1130 | 288 | 340 | 245 | 203 | 190 | 294 |
| DKKTATGGAPSQPGA | 991 | 516 | 767 | 2780 | 760 | 615 | 376 | 210 | 123 | 112 | 543 | 224 |
| SGKDKKPAAGEAPSQ | 1460 | 1740 | 11400 | 1540 | 1070 | 12000 | 120 | 86.2 | 89.8 | 1370 | 60.3 | 83.4 |
| GKDNKTATGETPSPS | 4610 | 1080 | 4850 | 9980 | 7560 | 10100 | 293 | 314 | 125 | 334 | 289 | 1940 |
| GTDNKAATGGAPSPP | 603 | 429 | 31600 | 675 | 669 | 1620 | 303 | 454 | 1610 | 270 | 228 | 111 |
| SGTDNKTAAGEAPSP | 277 | 736 | 41700 | 242 | 248 | 8430 | 124 | 603 | 1060 | 187 | 108 | 200 |
| SGTEKKAATGEAPSP | 22300 | 36500 | 36100 | 273 | 413 | 25700 | 533 | 324 | 384 | 664 | 143 | 172 |
| EKKPAAGGAPSQSGA | 304 | 205 | 405 | 4530 | 303 | 368 | 238 | 746 | 589 | 101 | 131 | 692 |
| KDKKAAAGGAPSPPG | 225 | 256 | 182 | 2090 | 305 | 452 | 118 | 79.8 | 113 | 146 | 82.1 | 107 |
